Measured values from the supplement of paper PMC10126150.
Values marked as one replicate rest on one cluster of the flow cell; about a third of the high ones do not repeat.

Test system: ATP
Assay: switch fluorescence ratio, 500 uM ATP over buffer (Cy3 cluster intensity, sum of 5 cycles each) (fold (ratio)); higher = stronger signal-on switching upon ATP binding; sequences stand for … in TCGTCGGCAGCGTCAGATGTGTATAAGAGACAGTTTTTTTTTTTTTTTTTTTTTTTTT…TC
Conditions: aptamer strand: ATP DNA aptamer (quencher-CACCTGGGGGAGTATTGCGGAGGAAGG + anchor), 100 nM annealed; ATP concentration: 500 uM; one replicate
Procedure, shortened: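 Five buffer/ATP imaging cycles were run on Cy3-labelled switching-strand clusters on a modified Illumina MiSeq flow-cell, with NaOH stripping and re-annealing between cycles. In each cycle, clusters annealed to 100 nM quencher-labelled ATP aptamer were imaged in selection buffer, then after 15 min with 500 uM ATP at 22 °C. Per cluster, the fluorescence ratio is summed target-cycle over summed buffer-cycle Cy3 intensity, averaged per switch-domain sequence. Only clusters within 100-1000 RFU were kept.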
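Further: ATP exposure 15 min at 22 °C before imaging.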

Row | Sequence | switch fluorescence ratio
1 | TTCGCAGATA | 1.59
2 | AGAGTGCAAG | 1
3 | CCTAGGCAGG | 1.29
4 | TTGTCAATGC | 2.1
5 | ATTTCGGCT | 1
6 | GGGTCCGTGA | 1.02
7 | AATTGATAGA | 1
8 | CCGCTAACTT | 3.62
9 | GTTTTATAAG | 0.984
10 | GCGCCGGTAA | 1.06
11 | CATCCAAGCT | 1.11
12 | CGCCCGCCCG | 1.11
13 | CGCAGTACTG | 3.11
14 | AAGTCTTTTA | 0.952
15 | AGCCAGGGC | 1.03
16 | TATCGCACAA | 1.14
17 | GTTGTACTCC | 1.45
18 | GGAGACCAGT | 1.01
19 | GCATGGCGCA | 1.05
20 | CTTTTCTACA | 0.983
21 | TACCTTGACA | 1.09
22 | ACTGCCGCTT | 1.25
23 | TGAGGAGTG | 0.994

Row | Sequence | switch fluorescence ratio
24 | GTAGGAAGAT | 1.15
25 | TAAACAGCCC | 1.05
26 | AACGGAGGGT | 0.974
27 | GTTAATTTTG | 0.989
28 | CCTGGGGATG | 1.02
29 | ATAGAACAAC | 1.02
30 | AATCTAATTA | 0.98
31 | CATTAGGCTA | 1.02
32 | CAGCTCTTAA | 1.02
33 | TCTTGTAAAC | 1.03
34 | TAAAGAGTTG | 1.01
35 | AGGTGAGGAG | 1.01
36 | TGCGCTTGAC | 1.59
37 | GAAGCGTATT | 1.02
38 | AAATTAACTA | 1.05
39 | TATAGGTGTG | 0.995
40 | CCCTGCCTTG | 0.967
41 | TCGGGCCACT | 1.02
42 | GCGTTCGGTA | 0.989
43 | TAAAACAATA | 1.02
44 | AATTGCGATA | 1.09
45 | CGAGTCACTC | 1.03
46 | GGTGGTGCG | 0.987

Row | Sequence | switch fluorescence ratio
47 | CCAAGATGAG | 1
48 | TCGAGAGCCG | 0.998
49 | TAACGCGCGG | 1
50 | GTATCTACGT | 1.01
51 | GGGTAACACC | 0.998
52 | AACGTCTCAG | 1
53 | AGCATCATT | 0.985
54 | CTGAAGCGGA | 1.12
55 | GCATTTTGAG | 0.926
56 | GAGCGATGTT | 1.56
57 | ATCATCGGCG | 1.04
58 | GCGTAAGCCA | 0.946
59 | TGCTGCGATA | 1.33
60 | GCAGCTATTG | 1.05
61 | GTGTACCGGG | 0.985
62 | AATGGAAATG | 1
63 | GCGGGCTCTG | 0.989
64 | ATTGATGGAC | 1.04
65 | TATGAGGCA | 1
66 | ACCTGATC | 2.19
67 | CGTTTAGCAA | 5.62
68 | TTAGAGCGAT | 4.03
69 | AATTTTGAAC | 1.02

Row | Sequence | switch fluorescence ratio
70 | TATACGCGCA | 1.03
71 | GAGTGAATC | 1.01
72 | TATTCGCGGT | 0.995
73 | TAGCACAGAC | 2.88
74 | CGAAAGGTGT | 1.16
75 | CTAGCCTCA | 0.963
76 | GGGGTACACA | 1.05
77 | TGGACCACAC | 1.31
78 | ACTTTTATGT | 1.03
79 | TGGGCAGAAT | 1.08
80 | GAGACTGGGT | 1.01
81 | CTTTTAAACA | 1.04
82 | GCGGGCGAGG | 1.02
83 | AAAGTTATTT | 1.05
84 | GAAGAAGGAT | 0.98
85 | CGGCACCGT | 0.995
86 | GGACATTGGG | 1.02
87 | GGCATTGATA | 1
88 | GTCTCGAAAG | 1
89 | TCCGGTCCGG | 0.998
90 | CTTTCTGTTC | 1.1
91 | TGCCTGAGGC | 1.01
92 | ATCGGCCTCT | 0.955

Row | Sequence | switch fluorescence ratio
93 | GCGACGGAAG | 1.06
94 | CGCTACATGT | 1.08
95 | GCAGTAAAC | 1.45
96 | TCTGTGCTAT | 1.08
97 | TTGAGTCGTA | 0.958
98 | TTGTCATGTG | 1.02
99 | CTATTTGTTC | 1.06
100 | ATTGCCCCGG | 1.26
101 | ACAAAGCCGT | 0.968
102 | GGATCTTGAT | 0.948
103 | CAATCATTG | 0.972
104 | GTGAAGCGAG | 1.03
105 | ACGGGGCTAG | 1.02
106 | CACGTCTGCA | 1.12
107 | TTATGGAAGC | 1.01
108 | GAGCCTCAAG | 0.978
109 | AGCTAGGGA | 0.964
110 | GGCGGGTCGC | 0.993
111 | ATCTTAACCG | 1.03
112 | CTCGTAAAGT | 1.49
113 | CTGATTGATT | 0.985
114 | GCCTAACGCA | 1.12
115 | TGAAGCGCGG | 0.986

Row | Sequence | switch fluorescence ratio
116 | CGGAAAATGG | 0.991
117 | ACTTTATCAT | 1.06
118 | GTTGGATATC | 1.02
119 | GTCGGTTCAC | 0.957
120 | GATCGATATT | 0.96
121 | GGGATCTTCC | 1.66
122 | GAGACATTGC | 1.05
123 | TTGGCCGTAT | 1.19
124 | ATGGAATATG | 1.03
125 | AGCGCCTCCA | 1.04
126 | ATTGAAGACC | 1.03
127 | TTCCCCAAT | 1.17
128 | AACGTCTGTC | 1.03
129 | GAGGTATCGA | 1.07
130 | TGGGGCTGAT | 0.992
131 | GCCTTCTGGG | 0.996
132 | TGGATTGAAT | 0.999
133 | CAAAGTATCT | 0.998
134 | TATTTCAGGG | 0.995
135 | CCTGGTAGGC | 1.07
136 | TACAATGATA | 0.999
137 | GCACCGATGC | 1.16
138 | TTCTTATTGG | 0.981

Row | Sequence | switch fluorescence ratio
139 | AGAAAACTCT | 0.997
140 | TACGATTATC | 1.12
141 | GGCGCTTGAG | 1.02
142 | CTAGGAAAGC | 1.01
143 | TTGCGCCCTA | 1.02
144 | CTTCGTAAGA | 1.24
145 | GTGCATGGGT | 1.02
146 | ACGGTGATCT | 1.02
147 | CCCGCAGGGG | 1.51
148 | AACAATCTTT | 0.999
149 | TAGACCTCAC | 1.19
150 | AAGCACTGAG | 1.25
151 | TTTGACAGAG | 0.962
152 | CCAAAATTAA | 1
153 | TGTTGGGT | 1.04
154 | CTCTCCATAA | 1.37
155 | CCGATATGTT | 1.05
156 | TCCGAGCGGG | 1.39
157 | AGCTGACGGG | 1.04
